# In all, about 330,000 compounds went through this assay and about 300 (0.091%) were called active. Inconclusive results, whose numbers are uncertain, are shown with a selection of clear calls. Calls follow the shape of the dose curve; as a rule, active = well fitted inhibition curve with a large enough effect; inconclusive = small, poorly fitted or top-dose-only effect, or effect the other way, or another doubt; inactive = no such curve, though single readings can be large or run the other way. Potencies of inconclusive entries are left out as doubtful fits.
# Target: Lysosomal acid glucosylceramidase (Homo sapiens) (UniProt P04062)
# Assay: qHTS Assay for Inhibitors and Activators of N370S glucocerebrosidase as a Potential Chaperone Treatment of Gaucher Disease;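 as to activity change, negative = inhibition: 0% = full enzyme activity and -100% = no enzyme basal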
# Details: N370S GC spleen homogenate, 4MU-glucoside fluorescence; activity change, negative = inhibition: at 59.4 µM (top of the series) unless noted
# Potency is read from the fitted curve at half-maximal effect.
SMILES,Potency,"activity change, negative = inhibition"
CCCCn1nc(C(=O)Oc2ccc3c(C)cc(=O)oc3c2)c2ccccc2c1=O,"inconclusive [activator, partial curve]",–
O=[N+]([O-])c1ccccc1/C=C/CN1CCSCC1,"inconclusive [inhibitor, partial curve, poor fit]",–
O=C(CN1C(=O)CC(c2ccco2)Sc2ccccc21)Nc1ccc2c(c1)OCCO2 (centres undefined),"inconclusive [activator, partial curve]",–
CN(C)CCN(C(=O)c1ccc2c(c1)OCCO2)c1nc2c(Cl)cccc2s1,"inconclusive [inhibitor, single point]",–
COc1cccc2cc(-c3nc4ccccc4[nH]3)c(=O)oc12,–,inactive: -3.99%
Cc1sc2ncnc(N3CCC(C(=O)NNC(=O)c4ccc(Cl)cc4)CC3)c2c1C,–,inactive: -7.23%
Clc1ccccc1Cn1nnc(-c2ccccc2)n1,–,inconclusive: 34.2% [activator]
CNC(=O)c1c(NC(=O)c2ccc(S(=O)(=O)N(C)c3ccccc3)cc2)sc2c1CCN(C(C)C)C2,"inconclusive [inhibitor, single point]",–
CCn1c(=S)sc2c(=O)n(-c3ccccc3)c(SC)nc21,"inconclusive [inhibitor, single point]",–
CC(=O)c1cc2c(cc1O)OC(C)(C)C=C2,"inconclusive [activator, partial curve]",–
Nc1c(Cl)cc(C2=NCCn3nc4ccccc4c32)cc1Cl,"inconclusive [inhibitor, partial curve]",–
COC(=O)Nc1ccc(S(=O)(=O)Nc2ccc(O)cc2)cc1,–,inactive: -2.64%
Nc1ccc(N2CCCCC2)c(S(=O)(=O)Nc2ccc(Cl)cc2)c1,"inconclusive [activator, partial curve]",–
CC(C)Oc1ccc(C(=O)Nc2cccc3cccnc23)cc1,"inconclusive [activator, partial curve]",–
COc1ccc(-c2c(-c3ccccc3)c(C(=O)C(=O)NCCCN(C)C)n3ccc4cc(OC)c(OC)cc4c23)cc1OC,"inconclusive [inhibitor, partial curve, poor fit]",–
CCOc1c(O)ccc(/C=C2\SC(=S)NC2=O)c1[N+](=O)[O-],"inconclusive [inhibitor, partial curve]",–
CCNc1nc(N)c(C(=O)c2ccc(Cl)s2)s1,–,inactive: 11.3%
CCCCN(CC)S(=O)(=O)c1ccc(C(=O)N(CCCN(C)C)c2nc3cc(C)cc(C)c3s2)cc1,"inconclusive [inhibitor, partial curve]",–
CCOC(=O)N/N=C/c1cn(CCCOc2ccc(C)cc2)c2ccccc12,"inconclusive [activator, partial curve]",–
O=C1NC(=Nc2ccc(O)cc2)S/C1=C/c1ccco1,"inconclusive [inhibitor, single point]",–
CCCOc1ccc2c(c1)C(=NN=C(N)N)c1cc(OCCC)ccc1-2,"inconclusive [inhibitor, partial curve]",–
CCCC(C)NC(=O)CN1C(=O)c2cccc3cccc1c23 (centres undefined),–,inactive: 6.89%

SMILES,Potency,"activity change, negative = inhibition"
Cc1ccccc1CN1[C@@H](CC2CCCCC2)COCCS1(=O)=O,"inconclusive [activator, single point]",–
Cc1ccc(CNC(=O)CSc2nnc3c(n2)[nH]c2ccccc23)cc1,–,inactive: 2.03%
Cc1c(C)c2cc(Cl)c(O)c(CN3CCCCC3)c2oc1=O,"inconclusive [activator, partial curve]",–
CCN(CC)C(=O)CCc1nnc(Cc2cccc(C(F)(F)F)c2)o1,–,inactive: 3.33%
O=c1cc(N2CCCCC2)c(-c2ccccc2)nn1Cc1c(Cl)cccc1Cl,"inconclusive [activator, full curve]",–
C#CCOCCOCCOCCNc1nc(N2CCN(C(=O)CCCCCCCCCCNC(=O)[C@H](CCCCN)n3cc(C)nn3)CC2)nc(N2CCN(C(=O)CCCCCCCCCCNC(=O)[C@@H]([C@H](C)O)n3cc(C)nn3)CC2)n1,"inconclusive [inhibitor, partial curve]",–
Cc1ccc(S(=O)(=O)N(C)CC(=O)Nc2nc3ccccc3s2)cc1,"inconclusive [activator, single point]",–
N=C1C(c2nc3ccccc3s2)=C(O)CN1Cc1ccccc1,"inconclusive [activator, full curve, poor fit]",–
O=C1CC(=O)Nc2cc(S(=O)(=O)N3CCOc4ccc(Cl)cc43)ccc2N1,"inconclusive [inhibitor, partial curve]",–
CCCOc1cccc(-c2cc(C(=O)N/N=C/c3ccccn3)c3ccccc3n2)c1,"inconclusive [activator, single point]",–
C#CCOCCOCCOCCNc1nc(N2CCN(C(=O)CCCCCCCCCCNC(=O)[C@H]([C@@H](C)CC)n3cc(CCCCN=C(N)N)nn3)CC2)nc(N2CCN(C(=O)CCCCCCCCCCNC(=O)[C@H](CO)n3cc(CCCSC)nn3)CC2)n1,"inconclusive [inhibitor, partial curve]",–
O=C(c1ccc(Cl)cc1)N1CCC(C(=O)N2CCCc3ccccc32)CC1,–,inactive: -2.57%
Cc1c(CC(=O)NCC(=O)N[C@H](Cc2ccccc2)C(=O)O)c(=O)oc2cc(O)ccc12,"inconclusive [activator, partial curve]",–
CC(C)C(=O)N1CCN(c2nc3ccc(Cl)cc3s2)CC1,–,inactive: -3.41%
O=C1Nc2cc3c(cc2Sc2ccccc21)OCCO3,"inconclusive [activator, partial curve]",–
O=C(NC(=S)Nc1ccc(Cl)cn1)c1cccs1,–,inactive: 16.2%
CCN(C(=O)COC(=O)c1ccccc1NCCO)C1CCS(=O)(=O)C1 (centres undefined),"inconclusive [activator, partial curve]",–
Nc1sc2c(c1C(=O)c1ccccc1)CCCC2,–,inactive: 5.67%
O=c1c(/C=N/O)c(Nc2ccccc2)nc2ccccn12,–,inconclusive: 34.9% [activator]
COC(=O)c1ccc(COC(=O)c2ccc(SC)cc2OC)cc1,–,inactive: 8.69%
CCc1ccc(Nc2n[n+](-c3ccccc3)c(-c3cccc(Cl)c3Cl)s2)cc1,"inconclusive [activator, single point]",–
COc1ccccc1C(=O)Nc1c(C(=O)N(CCN(C)C)Cc2ccco2)oc2ccccc12,"inconclusive [inhibitor, single point]",–

SMILES,Potency,"activity change, negative = inhibition"
S=c1[nH]c2ccccc2n1CCOc1ccccc1,"inconclusive [activator, single point]",–
Cc1c(/C=C/C(=O)c2ccc(O)cc2)cnn1C,"inconclusive [inhibitor, single point]",–
COC(=O)C1=CNC=C(C(=O)OC)C1c1ccc(C(=O)OC)cc1,"inconclusive [activator, single point]",–
COC(=O)c1ccc(CSc2nc(C(F)(F)F)c3c(c2C#N)CCC3)o1,"inconclusive [activator, partial curve]",–
COc1ccc(C)cc1S(=O)(=O)Nc1ccc(F)cc1,"inconclusive [inhibitor, full curve, poor fit]",–
CN(C)c1ccc(N=C/C=C2\N(C)c3ccccc3C2(C)C)cc1,"inconclusive [inhibitor, single point]",–
COC(=O)c1ccc(C(=O)OC)c(=O)[nH]1,"inconclusive [activator, partial curve]",–
COc1ccc(N(C(C)C(=O)NCc2ccco2)S(C)(=O)=O)cc1 (centres undefined),"inconclusive [inhibitor, partial curve]",–
Cc1cc(Nc2ccccc2)nc(N2CCN(C(=O)c3ccc4c(c3)OCO4)CC2)n1,"inconclusive [inhibitor, full curve, poor fit]",–
O=C(O)CN1C(=O)/C(=C\c2cccc(OCc3ccccc3F)c2)SC1=S,"inconclusive [activator, single point]",–
Cc1ccc(C)c(S(=O)(=O)Nc2nc3ccc(S(N)(=O)=O)cc3s2)c1,"inconclusive [inhibitor, single point]",–
NNC(=O)c1cc(-c2ccc(O)cc2)nc2ccc(Br)cc12,"inconclusive [inhibitor, single point]",–
CC(=O)C(Sc1ccc2nnc(-c3ccc(C)cc3)n2n1)C(C)=O,"inconclusive [activator, single point]",–
CCCC[C@H](NC(=O)[C@@H]1CCCN1C(=O)[C@H]1CCCN1C(=O)[C@H](Cc1ccccc1)NC(=O)[C@@H](Cc1c[nH]c2ccccc12)NC(=O)[C@H](C)NC(=O)[C@H](CCCN=C(N)N)NC(=O)OC(C)(C)C)C(N)=O,active: 2.82 µM,–
Cc1cc(C)n(-c2nc(NCCCO)c3c4c(sc3n2)CCCC4)n1,"inconclusive [activator, partial curve]",–
CCCN1C(=O)C(Cc2nc3ccccc3c(=O)n2-c2ccccc2)c2ccccc21 (centres undefined),"inconclusive [activator, partial curve]",–
Cc1ccc(/C(N)=N/OC(=O)CCC2CCCCC2)cc1,–,inactive: 4.98%
Cc1ccc(NS(=O)(=O)Cc2ccccc2)cc1Cl,"inconclusive [inhibitor, partial curve]",–
CN1CCN(C(c2ccc(C(F)(F)F)cc2)c2cc(Cl)c3cccnc3c2O)CC1 (centres undefined),"inconclusive [inhibitor, partial curve]",–
COc1ccc(S(=O)(=O)N2CCCCC2)cc1NC(=O)C1COc2ccccc2O1 (centres undefined),"inconclusive [activator, single point]",–

# — PubChem BioAssay AID2101 (National Center for Advancing Translational Sciences (NCATS), 2009)
